Measurements reported in publication PMC4336329 (PLoS ONE, 2015).
The campaign covered roughly 310,000 compounds. About 2,200 (0.71%) showed an effect of 50% or more. The effect is printed as a negative number. The list shows a part of the results.

Biological target: human ether-à-go-go-related gene (hERG) potassium channel (human, UniProt Q12809)
Test: primary screen, population patch clamp on CHO cells stably expressing hERG

Chain of human ether-à-go-go-related gene (hERG) potassium channel (Q12809 whole entry, looked up): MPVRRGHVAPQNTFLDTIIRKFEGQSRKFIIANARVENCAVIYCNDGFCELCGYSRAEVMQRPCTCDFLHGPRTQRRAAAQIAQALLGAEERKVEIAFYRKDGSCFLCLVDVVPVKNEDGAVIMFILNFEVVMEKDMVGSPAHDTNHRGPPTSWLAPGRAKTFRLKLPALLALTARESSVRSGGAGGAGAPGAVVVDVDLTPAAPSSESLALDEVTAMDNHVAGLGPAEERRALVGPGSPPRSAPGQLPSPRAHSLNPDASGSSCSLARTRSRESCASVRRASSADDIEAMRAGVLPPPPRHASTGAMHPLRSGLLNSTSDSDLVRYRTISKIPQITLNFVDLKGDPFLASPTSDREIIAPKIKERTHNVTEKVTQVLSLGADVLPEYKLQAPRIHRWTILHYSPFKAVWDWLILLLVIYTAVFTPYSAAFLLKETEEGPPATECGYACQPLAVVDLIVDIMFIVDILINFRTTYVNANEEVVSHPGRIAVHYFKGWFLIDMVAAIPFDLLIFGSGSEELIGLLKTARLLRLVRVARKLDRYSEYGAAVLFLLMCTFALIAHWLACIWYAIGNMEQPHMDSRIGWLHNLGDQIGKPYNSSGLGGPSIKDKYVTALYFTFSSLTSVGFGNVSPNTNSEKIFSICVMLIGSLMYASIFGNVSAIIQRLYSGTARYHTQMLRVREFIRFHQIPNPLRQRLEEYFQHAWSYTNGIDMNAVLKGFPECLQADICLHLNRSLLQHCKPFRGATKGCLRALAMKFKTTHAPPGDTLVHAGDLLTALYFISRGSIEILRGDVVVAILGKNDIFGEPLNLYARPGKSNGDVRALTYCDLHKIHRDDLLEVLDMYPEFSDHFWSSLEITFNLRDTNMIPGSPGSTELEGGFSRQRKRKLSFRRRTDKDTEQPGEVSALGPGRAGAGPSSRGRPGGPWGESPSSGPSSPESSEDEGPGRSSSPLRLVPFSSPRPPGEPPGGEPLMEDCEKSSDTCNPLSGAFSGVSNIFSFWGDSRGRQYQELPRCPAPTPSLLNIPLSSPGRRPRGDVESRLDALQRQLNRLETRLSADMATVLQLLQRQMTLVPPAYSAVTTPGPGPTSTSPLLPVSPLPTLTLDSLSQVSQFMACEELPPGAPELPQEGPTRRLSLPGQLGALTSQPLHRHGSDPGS

Compound | hERG current change (%, negative = inhibition) at 1uM
COc1ccc(NC(=O)c2sc3nc(Cc4ccccc4)cc(C(F)(F)F)c3c2N)cc1OC | 8.31%
C/C(=N\Nc1cc(C)nc(NCc2ccccc2)n1)c1ccc([N+](=O)[O-])cc1 | 17.8%
COC(=O)C1C(O)=C(C=Nc2ccccc2)C(=O)CC1(C)C (stereo not drawn) | 8.18%
CC(Oc1ccccc1)C(=O)N(CCC1=CCCCC1)c1c(N)n(Cc2ccccc2)c(=O)[nH]c1=O (stereo not drawn) | 7.41%
COc1ccc(COC(=O)c2ccc(Cl)c(S(=O)(=O)N3CC(C)OC(C)C3)c2)cc1 (stereo not drawn) | -0.118%
O=C(COc1ccc(C(=S)N2CCCC2)cc1)Nc1ccc(F)cc1 | 4.37%
CCOC(=O)CC1(NC(=O)c2cc(COc3ccc(F)c(F)c3)on2)CCCCC1 | 7.08%
CN(c1ccccc1)c1ccc(/C=c2\s/c(=C(/C#N)C(=O)C(C)(C)C)n(Cc3ccco3)c2=O)cc1 | 8.84%
O=[N+]([O-])c1ccccc1CNCCCCCO | -1.63%
CC12CCC(c3c(CO)nn(-c4ccccc4)c31)C2(C)C (stereo not drawn) | -3.9%
CC(C(=O)Nc1ccccn1)N1C(=O)C2C3C=CC(C3)C2C1=O (stereo not drawn) | 10.9%
O=c1c2ccccc2nc(/C=C/c2ccc(Br)cc2)n1CCO | 9.05%
COc1ccc2nc(SCc3cccc(C)c3)nc(C)c2c1 | -7.86%
CC(C)(C)N(Cc1ccccc1)C(=O)COC(=O)CSc1ccc([N+](=O)[O-])cc1 | 14.9%
COc1cc(S(N)(=O)=O)c(OC)cc1N | 23.6%
CCCn1c(NCCO)nc2ccccc21 | 9.44%
O=C(NCc1ccccc1Cl)C1CCCN1C(=O)NCc1ccccc1 (stereo not drawn) | 14.7%
COn1c(-n2nc(C)cc2C)nc2ccccc2c1=O | 15.2%
O=C(c1cc(Cl)nc2ccccc12)N(Cc1nnc(-c2ccc(Cl)cc2)o1)C1CC1 | -13.4%
O=C(/C=C/c1ccc2c(c1)OCO2)NCc1cn2cc(Cl)ccc2n1 | 10.9%
O=C(CSc1nnc(CNC(=O)c2c(F)cccc2Cl)o1)NCCc1ccccc1 | 3.91%
CNC(=S)Nc1ccc(Br)cc1 | 3.15%
CCCNS(=O)(=O)c1ccc(OC)c(Cl)c1Cl | 0.827%
O=C(CCNc1cccc(F)c1)c1cc2ccccc2o1 | 7.33%
